Assay results as given in patent US10184140B2, “Materials and methods for production of bi-functional fatty acids in recombinant bacteria” (IOWA STATE UNIVERSITY RESEARCH FOUNDATION, INC., priority 2013, dated 2019).
Read-outs that look alike come from different tables or passages of the source.

System: B. subtilis ΔbfabHA ΔbfabHB::erm double-deletion mutant
Conditions: for Support of growth of the KASIII-deficient strain: at or below 20° C.
Description: E. coli and B. subtilis were routinely grown in LB medium at 37° C. B. subtilis minimal medium was composed of Spizizen salts (Spizizen, PNAS USA 44: 1072-1078 (1958)), supplemented with 0.5% glucose and amino acids (Sueoka et al., Cold Spring Harbor Symp. Quant. Biol. 33: 695-705 (1968)). As needed, media were supplemented with erythromycin (1 μg/ml) and ampicillin (100 μg/ml). IPTG and X-gal were used at concentrations of 0.4-1 mM and 40 μg/ml, respectively. As needed, media were supplemented with 10-100 μM individual fatty acids suspended in 0.01% (v/v) Brij 58P detergent. Fatty acids were obtained from Sigma-Aldrich Corporation (St. Louis, Mo.). The purity of the commercial sources of anteiso-C16:0, iso-C16:0 and palmitoleic acid were determined by GC-MS analysis (see Table 1). Cell density was determined by monitoring A600 using a Spectronic 20D+ spectrophotometer (Thermo Fisher Scientific Inc., Waltham, Mass.) or in a 96-well plate using an ELx808 Absorbance Microplate Reader (BioTek Instruments, Inc., Winooski, Vt.). Doubling time (Td) was determined from the log-phase time points of cultures.
A 0.5 ml aliquot of an overnight B. subtilis culture normalized for equal cell density was collected by centrifugation at 13,200×g for 30 seconds. The cell pellet was suspended in 50 ml minimal medium or LB rich medium. Cell cultures were shaken at 250 rpm. Cells were collected at late log phase by centrifugation at 5,000×g for 10 minutes. The collected cell pellets were lyophilized and stored at −20° C. until analysis. Lipids were extracted from lyophilized bacterial cell pellets using chloroform/methanol (Ways et al., J. Lipid Res. 5: 318-328 (1964)), and fatty acids were then converted to picolinyl ester (lipidlibrary.aocs.org/ms/ms02/index.htm) (Harvey, Biomed. Mass Spectrom. 9: 33-38 (1982)) or methyl esters using methanolic-HCl at 80° C. for 60 minutes (Broekman et al., J. Bacteriol. 116: 285-289 (1973); and Broekman et al., J. Bacteriol. 117: 971-977 (1974)). The recovered picolinyl ester or fatty acid methyl esters were concentrated as needed under a stream of nitrogen gas and analyzed with GC-MS interfaced with a Mass Detector 5973 (Agilent Technologies, Santa Clara, Calif.). The double bond positions in unsaturated fatty acids were determined by GC-MS analysis of dimethyl disulfide adducts (Buser et al., Anal. Chem. 55: 818-822 (1983)).
A KASIII-deficient strain was developed in the ΔbfabHA strain by inserting the erm gene into the bfabHB locus via a homologous double-crossover recombination event. […] The absence of either KASIII proteins in the rescued double-mutant strain was confirmed by Western blot analysis. These findings established that KASIII is essential for B. subtilis cellular metabolism.
Therefore, whether or not other fatty acids could improve the growth capabilities of the KASIII-deficient strain was examined. Rescue of the KASIII-deficient strain was attempted by the inclusion of anteiso- and iso-BCFAs, and normal saturated and unsaturated fatty acids of different chain lengths. These complementation experiments were conducted by providing these fatty acids in the media at three different concentrations (10, 30 and 100 μM each). […] None of the tested normal saturated chain fatty acids (n-C8:0, C10:0, C12:0, C14:0, C16:0 and C18:0) could rescue growth (at any of the tested concentrations).
Moreover, by conducting these tests at different growth temperatures, the degree to which these different types of fatty acids maintained membrane fluidity in response to thermal tolerance was assessed (Suutari et al., Crit. Rev. Microbiol. 20: 285-328 (1994)).
Four different types of 16-carbon fatty acids (anteiso-C16:0, iso-C16:0, palmitoleic acid, and palmitic acid) were supplied in the medium to evaluate the capacity of these different fatty acids to rescue the KASIII-deficient strain at four different temperatures between 16° C. and 37° C. […]

[1] = fatty acid in the media at 10 μM (lowest concentration tested)
[2] = fatty acid in the media at 30 μM

SMILES	Rescue of growth of the KASIII-deficient strain [1]	Support of growth of the KASIII-deficient strain (30 μM in LB medium)	Rescue of growth of the KASIII-deficient strain [2]	further results
CCCCCCCC/C=C\CCCCCCCC(=O)O [oleic acid]				Rescue of growth of the KASIII-deficient strain (fatty acid in the media even at 100 μM): could not rescue the strain
CCC(C)CCCCCCCCC(=O)O (stereo not shown) [anteiso-C13:0]	successful in complementing the KASIII deficiency			
CC(C)CCCCCCCCCCCCC(=O)O [iso-C16:0]		incapable of supporting growth	able to rescue growth	
CCCCCC/C=C\CCCCCCCC(=O)O [palmitoleic acid]		rescued the KASIII deficiency	could rescue the KASIII deficiency	
CCCCCCC=CCCCCCCCCC(=O)O [n-C17:1(10)]			could rescue the KASIII deficiency	
CCC(C)CCCCCCCCCCCC(=O)O (stereo not shown) [anteiso-C16:0]	successful in complementing the KASIII deficiency	rescued the KASIII deficiency		Efficiency in supporting growth of the KASIII-deficient strain (all temperatures tested, 16° C. to 37° C., 30 μM in LB medium): most efficient in supporting growth
